Reference: PubChem BioAssay (Tox21)
Several values for one entry are separate records, joined by “and”; a condition that tells them apart may be missing. Equal values may be shown once. Inconclusive means that the source gave no clear call. Such entries were picked first, then a sample of the others. For part of these data: Potencies beside an inconclusive call are fits to weak or partial responses and may not hold up. More than one record can exist for a structure, and the calls need not agree. Activity calls are given as the source filed them. Unless noted, calls come from the whole dose curve; as a rule, active = well fitted curve in the direction sought with a large enough effect in the repeat runs; inconclusive = weak or mixed curves; inactive = no such curve, though single readings can be large; an effect the other way counts as inactive or inconclusive.

Columns and labels:
[1] = qHTS assay to identify small molecule agonists of the estrogen related receptor (ERR) signaling pathway from Tox21 library (AID 1224849; calls by dose curve; note: % is set by controls: 0 for no effect and ±100 for the full control effect; nearly all actives have a fitted effect of over 15% in size); details: ERR reporter cell line, ONE-Glo luciferase, 18 h; at 92.4 µM (top of the series) unless noted
In short: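 Tox21 compounds tested for ERR agonism in an NTP reporter cell line: 18 h treatment at 37 C, then ONE-Glo luminescence.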

[2] = A CellTox Green Cytotoxicity Assay to monitor cytotoxicity in HepG2 cells - 16 hour (AID 1224876); note: potency is the fitted concentration of half-maximal effect; nearly all actives have a fitted effect of over 45% in size
In short: (§1)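 Measurements at 0, 8, 16, 24, 32 and 40 h of treatment captured CellTox Green fluorescence in HepG2 cells that had been co-plated with reagent and preincubated 5 h at 37 C/5% CO2.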

[3] = A CellTox Green Cytotoxicity Assay to monitor cytotoxicity in HepG2 cells - 24 hour (AID 1224878); note: potency is the fitted concentration of half-maximal effect; nearly all actives have a fitted effect of over 45% in size
In short: as §1

[4] = qHTS RealTime-Glo MT Cell Viability Assay in HepG2 cells - 40 hour (AID 1224870); note: potency is the fitted concentration of half-maximal effect; nearly all actives have a fitted effect of over 50% in size
In short: (§2)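 HepG2 cells (600/well) mixed with RealTime-Glo MT reagent, settled 5 h at 37 C/5% CO2 before compound addition. Nonlytic NanoLuc luminescence from viable-cell prosubstrate reduction read repeatedly during 40 h treatment at 37 C.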

[5] = qHTS RealTime-Glo MT Cell Viability Assay in HEK293 cells - 0 hour (AID 1224880); note: nearly all actives have a fitted effect of over 45% in size; note: potency is the fitted concentration of half-maximal effect
In short: (§3)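 HEK293 + NanoLuc + prosubstrate, 600 cells/well; 5 h, 37 C/5% CO2; compound 23 nL in DMSO by pintool; 37 C; luminescence read at 0, 8, 16, 24, 32 and 40 h time points.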

[6] = A CellTox Green Cytotoxicity Assay to monitor cytotoxicity in HepG2 cells - 40 hour (AID 1224879); note: nearly all actives have a fitted effect of over 40% in size; note: potency is the fitted concentration of half-maximal effect
In short: as §1

[7] = A CellTox Green Cytotoxicity Assay to monitor cytotoxicity in HepG2 cells - 0 hour (AID 1224882); note: % is set by controls: 0 for no effect and ±100 for the full control effect; nearly all actives have a fitted effect of over 35% in size
In short: as §1

[8] = qHTS assay to identify small molecule agonists of H2AX - cell viability counter screen (AID 1224847; calls by dose curve; note: nearly all actives have a fitted effect of over 30% in size; note: potency is the fitted concentration of half-maximal effect)
In short: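 Wild-type CHO-K1 cells (10% FBS medium) were plated overnight at 37C, exposed to compounds at 15 concentrations for 3 hr at 37C (0.76% DMSO final), and viability was read as CellTiter-Glo luminescence after 30 min at room temperature.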

[9] = qHTS RealTime-Glo MT Cell Viability Assay in HEK293 cells - 32 hour (AID 1224868); note: nearly all actives have a fitted effect of over 50% in size; note: potency is the fitted concentration of half-maximal effect
In short: (§4)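 Homogeneous bioluminescent viability format in HEK293 cells (600 cells/well). Following 5 h at 37 C/5% CO2, 23 nL compound was pintooled; the signal was measured repeatedly during 40 h incubation.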

[10] = qHTS RealTime-Glo MT Cell Viability Assay in HEK293 cells - 16 hour (AID 1224872); note: nearly all actives have a fitted effect of over 50% in size; note: potency is the fitted concentration of half-maximal effect
In short: as §4

[11] = qHTS assay to identify small molecule antagonists of the estrogen related receptor (ERR) signaling pathway from Tox21 library (AID 1224848); note: nearly all actives have a fitted effect of over 50% in size; note: potency is the fitted concentration of half-maximal effect
In short: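 Compounds dissolved in DMSO are pin-transferred onto ERR reporter cells (2,000 per well) that have settled for 6 h at 37 C. Plates then incubate 18 h at 37 C before ONE-Glo luciferase reagent and a luminescence read 30 min later.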

[12] = qHTS RealTime-Glo MT Cell Viability Assay in HEK293 cells - 40 hour (AID 1224874); details: RealTime-Glo luminescence; max response: stronger effect = lower value; note: nearly all actives have a fitted effect of over 50% in size; note: potency is the fitted concentration of half-maximal effect; for max response: % is set by controls: 0 for no effect and ±100 for the full control effect
In short: as §3

[13] = A CellTox Green Cytotoxicity Assay to monitor cytotoxicity in HEK293 cells - 24 hour (AID 1224875); note: nearly all actives have a fitted effect of over 45% in size; note: potency is the fitted concentration of half-maximal effect; for activity change: % is set by controls: 0 for no effect and ±100 for the full control effect
In short: (§5)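 Tox21 screen in HEK293: membrane-impermeant cyanine dye fluoresces on binding dead-cell DNA; compound pinned 5 h post-seeding, plates held at 37 C, signal read repeatedly through 40 h.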

[14] = qHTS RealTime-Glo MT Cell Viability Assay in HepG2 cells - 24 hour (AID 1224867); note: nearly all actives have a fitted effect of over 50% in size; note: potency is the fitted concentration of half-maximal effect
In short: (§6)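 Cell number in HepG2 cultures estimated from NanoLuc luminescence generated by metabolic reduction of a prosubstrate by living cells. The homogeneous, nonlytic format allowed repeated reads at 0, 8, 16, 24, 32 and 40 h of compound exposure.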

[15] = qHTS RealTime-Glo MT Cell Viability Assay in HepG2 cells - 8 hour (AID 1224873); note: nearly all actives have a fitted effect of over 55% in size; note: potency is the fitted concentration of half-maximal effect
In short: as §2

[16] = A CellTox Green Cytotoxicity Assay to monitor cytotoxicity in HEK293 cells - 0 hour (AID 1224869)
In short: as §5

[17] = qHTS RealTime-Glo MT Cell Viability Assay in HepG2 cells - 32 hour (AID 1224877); note: potency is the fitted concentration of half-maximal effect; nearly all actives have a fitted effect of over 55% in size
In short: as §6

[18] = A CellTox Green Cytotoxicity Assay to monitor cytotoxicity in HEK293 cells - 40 hour (AID 1224871)
In short: as §5

[19] = A CellTox Green Cytotoxicity Assay to monitor cytotoxicity in HEK293 cells - 32 hour (AID 1224881); note: potency is the fitted concentration of half-maximal effect; nearly all actives have a fitted effect of over 40% in size
In short: as §5
Tags give direction and shape of the fitted curve.

SMILES: CCCCCCCCN1CCCC1=O
- activity change, positive = activation [1]: inactive: -0.257%

SMILES: O=C(Oc1ccccc1)c1ccc2ccccc2c1O
- activity change, positive = activation [1]: active: 116%
- Potency [2]: inconclusive: 43.6 µM [activator, partial curve, poor fit]
- Potency [3]: inconclusive: 43.6 µM [activator, partial curve, poor fit]

SMILES: CCN(CCC#N)c1ccc(N=Nc2c(Cl)cc([N+](=O)[O-])cc2Cl)cc1
- Potency [4]: inconclusive: 49 µM [falling, partial curve, poor fit]

SMILES: O[C@@H](CNC[C@H](O)[C@H]1CCc2cc(F)ccc2O1)[C@@H]1CCc2cc(F)ccc2O1
- Potency [2]: active: 16.9 µM
- Potency [3]: active: 10.7 µM
- Potency [5]: inconclusive: 23.9 µM [rising, partial curve]

SMILES: COc1ccc(C(=O)c2ccccc2O)c(O)c1
- Potency [6]: inconclusive: 54.8 µM [activator, partial curve, poor fit] and inactive

SMILES: CC1(C)O[C@@H]2C[C@H]3[C@@H]4C[C@H](F)C5=CC(=O)C=C[C@]5(C)[C@H]4[C@@H](O)C[C@]3(C)[C@]2(C(=O)CO)O1
- Potency [5]: inconclusive: 16.9 µM [falling, partial curve]

SMILES: Brc1cc(-c2ccc(Br)c(Br)c2Br)cc(Br)c1Br
- Potency [7]: inactive

SMILES: CC(C)=CCC1=C(O)c2ccccc2C(=O)C1=O
- Potency [8]: inconclusive: 126 µM [cytotoxic, single point]
- Potency [9]: inconclusive: 34.5 µM [cytotoxic, partial curve]
- Potency [10]: inconclusive: 38.7 µM [cytotoxic, partial curve]

SMILES: O=C(CCc1ccc(O)cc1)c1c(O)cc(O)cc1O
- Potency [8]: inconclusive: 130 µM [cytotoxic]
- Potency [11]: inconclusive: 62.5 µM [inhibitor, single point]
- Potency [10]: active: 25.1 µM
- Potency [12]: active: 39.8 µM
- Potency [13]: inactive
- Potency [5]: active: 39.8 µM

SMILES: O=C(c1ccccc1)c1ccc(O)cc1
- Potency [8]: inconclusive: 51.1 µM [cytotoxic, full curve]
- Potency [11]: inconclusive: 61.8 µM [inhibitor, partial curve, poor fit]
- max response [12]: inactive: -20.1%

SMILES: O=S(=O)(O)c1ccc(N=Nc2c(O)ccc3ccccc23)cc1
- Potency [8]: inconclusive: 56.6 µM [cytotoxic, partial curve]
- Potency [14]: inconclusive: 43.6 µM [falling, partial curve]
- Potency [9]: inconclusive: 49 µM [cytotoxic, partial curve, poor fit]
- Potency [4]: inconclusive: 49 µM [falling, partial curve]
- Potency [15]: inconclusive: 38.9 µM [falling, partial curve, poor fit]
- Potency [12]: inconclusive: 49 µM [cytotoxic, partial curve, poor fit]

SMILES: COc1ccc(CCO)cc1
- Potency [8]: inconclusive: 50.5 µM [rising, single point]
- Potency [14]: inactive

SMILES: CCN(CC)c1ccc2c(-c3ccccc3C(=O)O)c3ccc(=[N+](CC)CC)cc-3oc2c1
- Potency [8]: active: 40.1 µM
- Potency [14]: inconclusive: 24.5 µM [falling, partial curve]
- Potency [9]: active: 21.9 µM
- Potency [16]: active: 21.9 µM
- Potency [4]: inconclusive: 43.6 µM [falling, partial curve]
- Potency [10]: active: 34.7 µM
- Potency [15]: inconclusive: 21.9 µM [falling, partial curve]
- Potency [17]: inconclusive: 24.5 µM [cytotoxic, partial curve]
- Potency [3]: active: 21.9 µM
- Potency [6]: active: 24.5 µM

SMILES: CCCCCCCCCCCCCO
- Potency [8]: inconclusive: 117 µM [rising, single point]
- Potency [11]: inactive
- Potency [15]: inactive
- Potency [6]: inconclusive: 62.4 µM [activator, single point] and inconclusive: 56.9 µM [activator, single point]

SMILES: Oc1ccc(OCc2ccccc2)cc1
- Potency [8]: inconclusive: 124 µM [cytotoxic, single point]
- Potency [14]: inactive
- Potency [18]: inconclusive: 60.4 µM [activator, single point]
- Potency [10]: active: 957 nM and inactive
- Potency [13]: inconclusive: 60.4 µM [activator, single point]
- Potency [6]: inconclusive: 53.8 µM [activator, single point]
- Potency [5]: inactive
- Potency [19]: inconclusive: 60.4 µM [activator, single point]

SMILES: O=C1N=C(O)CN1/N=C/c1ccc(-c2ccc([N+](=O)[O-])cc2)o1
- Potency [8]: inconclusive: 1.79 µM [cytotoxic, single point]
- Potency [9]: inconclusive: 49 µM [cytotoxic, partial curve]

SMILES: CC1(C)C(=O)N(Br)C(=O)N1Cl
- Potency [8]: inactive
- Potency [9]: inactive

SMILES: Cc1cc(CCCOc2c(C)cc(-c3noc(C(F)(F)F)n3)cc2C)on1
- Potency [8]: inconclusive: 55.2 µM [cytotoxic]
- Potency [9]: inconclusive: 21.3 µM [cytotoxic, partial curve]
- Potency [10]: inconclusive: 23.9 µM [cytotoxic, single point]
